PubChem BioAssay AID651820 (National Center for Advancing Translational Sciences (NCATS), 2012)
Among all 340,000 compounds or so, about 12,000 (3.5%) were called active. This list was built around the results that the source calls inconclusive (neither active nor inactive); the mix of calls is not that of the screen. Calls follow the shape of the dose curve; as a rule, active = well fitted inhibition curve with a large enough effect; inconclusive = small, poorly fitted or top-dose-only effect, or another doubt; inactive = no such curve, though single readings can be large or run the other way. Potencies of inconclusive entries are left out as doubtful fits.

Experiment: qHTS Assay for Inhibitors of Hepatitis C Virus (HCV)
Conditions: Huh7.5.1 HCVcc-Cre (HCVcc is cell-culture hepatitis C virus) infection, luciferase reporter, 44 h; activity change, negative = inhibition: at 41.8 µM (top of the series)
Summary of the method: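 After 44 h co-culture of compound, cells and HCVcc-Cre (~0.5 moi), substrate is added for 15 min at room temperature and luciferase measured over 15 sec. Cells were seeded at 1,000/well and pre-cultured 4 h.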
% is scaled to controls: 0 for no effect and ±100 for the full control effect; potency is read from the fitted curve at half-maximal effect; tags tell the direction and shape of the fitted curve.

SMILES | Potency | activity change, negative = inhibition
Cc1ccc(CN2CCCN(Cc3c(C)cc(C)cc3C)S2(=O)=O)cc1 | inactive | –
Cc1ccc(Oc2ncccc2N)c2c1CCC2 | inactive | –
CCOc1ccccc1NC(=O)Cn1c(=O)c(OCC)nc2cnccc21 | inconclusive [inhibitor, single point] | –
O=C1c2ccccc2-c2cc3ccccc3cc21 | inconclusive [inhibitor, single point] | –
O=C1CCC[C@@H]2C[C@@]3(C[C@@H]4CCN1[C@H]24)Nc1cc(Cl)c(Cl)cc1NC3=NCc1ccccc1 | inconclusive [inhibitor, single point] | –
Fc1ccc(Nc2nc(-c3ccncc3)nc3ccccc23)cc1 | inconclusive [inhibitor, full curve, poor fit] | –
O=C(O)C1CC(=O)N(Cc2ccc(F)cc2)C1 (stereo not given) | inconclusive [inhibitor, single point] | –
CCn1cc(CNC(=O)c2ccc3nc(Cc4ccc(OC)cc4)oc3c2)cn1 | active: 10 µM | –
CC(C)(C)OC(=O)NCCCC[C@H](NC(=O)c1[nH]cnc1C(=O)Nc1ccccc1)C(=O)OC(C)(C)C | inconclusive [inhibitor, single point] | –
O=S(=O)(Nc1nc2ccccc2nc1NCC1CCCO1)c1ccccc1 (stereo not given) | inconclusive [inhibitor, single point] | –
C[C@H](CO)N1C[C@H](C)[C@@H](CN(C)S(=O)(=O)c2ccc(F)cc2)Oc2c(NC(=O)NC3CCCCC3)cccc2C1=O | inconclusive [inhibitor, single point] | –
O=C(O)C1C2OC(C(Br)C2Br)C1C(=O)O (stereo not given) | inactive | –
c1ccc(-c2noc(CSc3nnnn3C3CCCCC3)n2)cc1 | inactive | –
Cc1ccc(NS(=O)(=O)c2c(C)[nH]c(C)c2C(=O)N2CCCC2)cc1Cl | inactive | –
O=C1NC(=Nc2ccc(O)cc2)S/C1=C\C=C\c1ccco1 | inactive | –
CC(=O)N1CC(C)Sc2ccc(S(=O)(=O)NC(C)c3ccccc3)cc21 (stereo not given) | inconclusive [inhibitor, single point] | –
O=C1N/C(=C/c2ccc(N3CCOCC3)cc2)C(=O)N1Cc1ccc(F)cc1 | inactive | –
Cc1ccc(S(=O)(=O)/C(C#N)=C/c2c(N3CCN(Cc4ccccc4)CC3)nc3ccccn3c2=O)cc1 | inconclusive [inhibitor, partial curve] | –
O=C(Nc1ccc2c(c1)CCC2)c1cc(S(=O)(=O)Nc2ccc(F)cc2)c(Cl)cc1Cl | inconclusive [inhibitor, partial curve, poor fit] | –
O=[N+]([O-])c1ccc2nc(SCc3ccccc3Cl)sc2c1 | inconclusive [inhibitor, partial curve] | –
CCOc1ccc(CN2CCN(Cc3cnc(N4CCOCC4)s3)CC2CCO)cc1 (stereo not given) | inconclusive [inhibitor, partial curve, poor fit] | –
Cc1ccc(NC(=O)c2sc3nc(C)cc(C)c3c2N)cc1 | inconclusive [inhibitor, partial curve, poor fit] | –
O=C(NCCN1CCCC1=O)C1CCC(=O)N(CCc2cccc(F)c2)C1 (stereo not given) | inactive | –
Cc1cc(/C=N\NC(=O)COc2cccc3cccnc23)c(C)n1-c1ccc(Br)cc1 | inconclusive [inhibitor, single point] | –

SMILES | Potency | activity change, negative = inhibition
CCOc1cc(C)nc(N2CCN(C3CCCCC3)CC2)n1 | inconclusive [inhibitor, partial curve, poor fit] | –
CC1CC(C)CN(C(=O)c2cccc(NC(=O)CC3SC(N4CCCCC4)=NC3=O)c2)C1 (stereo not given) | inconclusive [inhibitor, single point] | –
CC1CN(N=Cc2ccc([N+](=O)[O-])o2)C(=N)O1 (stereo not given) | inconclusive [inhibitor, single point] | –
Cc1ccc(S(=O)(=O)N(C)C)cc1NC(=O)COC(=O)CCC1CCCCC1 | inactive | –
COc1ccc(-c2cc(C(=O)OCC(=O)N(C)C3CCS(=O)(=O)C3)c3ccccc3n2)cc1OC (stereo not given) | active: 3.16 µM | –
CC(C)COc1ccc(C(=O)OC2CC(C)(C)OCC2CN(C)C)cc1 (stereo not given) | inconclusive [inhibitor, partial curve] | –
O=C(O)CCCCC1SCC2NC(=O)NC21 (stereo not given) | inconclusive [inhibitor, single point] | –
CCN1CCc2nc(NC(=O)C(c3ccccc3)c3ccccc3)sc2C1 | inactive | –
CON(C)S(=O)(=O)c1cccc(C(=O)N(CC(=O)Nc2ccccc2C(F)(F)F)Cc2ccco2)c1 | inconclusive [inhibitor, single point] | –
COc1cc(Cl)c(C)cc1NC(=S)NN | inconclusive [inhibitor, full curve] | –
Cc1c(NC(=O)C(C)OC(=O)c2ccc([N+](=O)[O-])cc2Cl)c(=O)n(-c2ccccc2)n1C (stereo not given) | inactive | –
CC(C)CC1NC(=O)c2ccccc2-n2c1nc1ccc(F)cc1c2=O (stereo not given) | inactive | –
CCN(CC)S(=O)(=O)c1cc(NC(=O)Cn2cnc3ccccc3c2=O)ccc1C | active: 11.2 µM | –
O=C(c1ccc(-n2cccc2)cc1)N1CCN(Cc2ccccc2)CC1 | inconclusive [inhibitor, single point] | –
O=C(CSc1nnc(-c2ccc(O)cc2)o1)Nc1cccc(O)c1 | inactive | –
CC(=O)c1ccc(OCCn2c(SCC(=O)O)nc3ccccc32)cc1 | inactive | –
COc1cc(C(CCN2CCN(c3ccccc3)CC2)c2c(OC)cc(OC)c3c(C)cc(=O)oc23)cc(OC)c1OC (stereo not given) | active: 3.98 µM | –
O=C(Nc1ccc(NC(=O)c2ccc([N+](=O)[O-])o2)cc1Cl)c1ccco1 | inconclusive [inhibitor, single point] | –
COc1cc(OC)cc(-c2c(C#Cc3ccsc3)c3cc(-c4ccc5[nH]ccc5c4)ccc3n2C)c1 | inactive | –
O=C(NNC(=S)NC(=O)c1cccs1)c1ccc(O)cc1 | inactive | –
COc1cc(C=NCC2OCCc3ccccc32)cc(OC)c1 (stereo not given) | inactive | –
CN(C)S(=O)(=O)c1ccc(C(=O)NCc2nc3ccccc3s2)cc1 | inactive | –
Cc1ccccc1OCC(=O)Nc1ccc(S(=O)(=O)N2CCCC2)cc1 | – | inconclusive: -46.4% [inhibitor]
CCC(=O)c1ccc(N2CCN(C(=O)COc3ccccc3F)CC2)c(F)c1 | inconclusive [inhibitor, single point] | –

SMILES | Potency | activity change, negative = inhibition
CCCN1CCc2c(sc(NC(=O)C3CCN(S(=O)(=O)c4cccs4)CC3)c2C(N)=O)C1 | inconclusive [inhibitor, single point] | –
C/C=N/NC(=O)CCNC(=O)c1ccccc1 | inactive | –
CCNC(=S)Nc1nc2c(cc1C(=O)OCC)CCCC2 | inconclusive [inhibitor, single point] | –
Cc1cc(C)c(N(C(=O)c2csnn2)C(C(=O)NC(C)(C)C)c2ccncc2)c(C)c1 (stereo not given) | inconclusive [inhibitor, partial curve] | –
COc1cnc(-c2ccccn2)nc1Oc1c(C)cccc1C | inconclusive [inhibitor, single point] | –
CC(C)c1cc(C(=O)N2CCCC(CCC(=O)NCc3ccccc3F)C2)n(C)n1 (stereo not given) | inconclusive [inhibitor, partial curve, poor fit] | –
CCOC(=O)N1CCC(NC(=O)c2ccc(CO)c(C(=O)NC3CCN(C(=O)OCC)CC3)c2)CC1 | inactive | –
Cc1ccc(C(=O)C(c2ccccc2)N2Cc3ccccc3C2=N)cc1 (stereo not given) | inconclusive [inhibitor, partial curve] | –
O=[N+]([O-])c1cccc2ccc(/C=C/c3cccc(Br)c3)nc12 | inconclusive [inhibitor, partial curve] | –
Cc1ccc(/C=C/C(=O)Nc2cccc3ncccc23)o1 | inconclusive [inhibitor, single point] | –
O=C(C1CCN(S(=O)(=O)c2cccc3nsnc23)CC1)N1CCCc2ccccc21 | inconclusive [inhibitor, single point] | –
CC(C)C(=O)Nc1nc(-c2ccc([N+](=O)[O-])cc2)cs1 | inconclusive [inhibitor, partial curve] | –
C[C@]12CC[C@H]3[C@@H](CCC4=CC(=O)CC[C@@]43C)[C@@H]1CC[C@@H]2C(=O)CO | inconclusive [inhibitor, single point] | –
Cc1ccc2cc(CN(Cc3ccco3)C(=O)NCc3ccccc3)c(=O)[nH]c2c1C | inconclusive [inhibitor, single point] | –
NCCNC(=O)Cc1ccc(NC(=O)Cc2ccc(Nc3ncnc4c3ncn4[C@@H]3O[C@H](CO)[C@@H](O)[C@H]3O)cc2)cc1 | inactive | –
COc1ccc2c(c1)C=CC1(O2)N(CCO)c2ccccc2C1(C)C (stereo not given) | inconclusive [inhibitor, partial curve] | –
Cc1cc(/C(N)=N/OC(=O)c2cccc(Cl)c2)no1 | inactive | –
CCOC(=O)c1c(C)[nH]c(C)c1S(=O)(=O)NCCCN1CCOCC1 | inactive | –
CC(C)(C)CN1CCC(Oc2cccc(C(=O)N3CCC[C@H]3CO)c2)CC1 | inactive | –
O=C(Oc1cccc(Nc2ncnc3ccccc23)c1)c1ccccc1Cl | inconclusive [inhibitor, single point] | –
COc1cccc(NC(=O)Cn2c(-c3cncs3)nc3ccccc32)c1 | inactive | –
O=C(O)c1cccc2c1C(=O)c1ccc(-c3ccc(OC(F)(F)F)cc3)cc1S2(=O)=O | inactive | –
